# Screen size: about 310,000 compounds; about 14,000 (4.5%) showed an effect of 50% or more. The effect is printed as a negative number. Some of the results follow.
# Target: human ether-à-go-go-related gene (hERG) potassium channel (human, UniProt Q12809)
# Experiment: primary screen, population patch clamp on CHO cells stably expressing hERG
# 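Also: peak tail current of the secondary pulse compared with the same well before compound.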
# Sequence of human ether-à-go-go-related gene (hERG) potassium channel (Q12809 whole entry, looked up): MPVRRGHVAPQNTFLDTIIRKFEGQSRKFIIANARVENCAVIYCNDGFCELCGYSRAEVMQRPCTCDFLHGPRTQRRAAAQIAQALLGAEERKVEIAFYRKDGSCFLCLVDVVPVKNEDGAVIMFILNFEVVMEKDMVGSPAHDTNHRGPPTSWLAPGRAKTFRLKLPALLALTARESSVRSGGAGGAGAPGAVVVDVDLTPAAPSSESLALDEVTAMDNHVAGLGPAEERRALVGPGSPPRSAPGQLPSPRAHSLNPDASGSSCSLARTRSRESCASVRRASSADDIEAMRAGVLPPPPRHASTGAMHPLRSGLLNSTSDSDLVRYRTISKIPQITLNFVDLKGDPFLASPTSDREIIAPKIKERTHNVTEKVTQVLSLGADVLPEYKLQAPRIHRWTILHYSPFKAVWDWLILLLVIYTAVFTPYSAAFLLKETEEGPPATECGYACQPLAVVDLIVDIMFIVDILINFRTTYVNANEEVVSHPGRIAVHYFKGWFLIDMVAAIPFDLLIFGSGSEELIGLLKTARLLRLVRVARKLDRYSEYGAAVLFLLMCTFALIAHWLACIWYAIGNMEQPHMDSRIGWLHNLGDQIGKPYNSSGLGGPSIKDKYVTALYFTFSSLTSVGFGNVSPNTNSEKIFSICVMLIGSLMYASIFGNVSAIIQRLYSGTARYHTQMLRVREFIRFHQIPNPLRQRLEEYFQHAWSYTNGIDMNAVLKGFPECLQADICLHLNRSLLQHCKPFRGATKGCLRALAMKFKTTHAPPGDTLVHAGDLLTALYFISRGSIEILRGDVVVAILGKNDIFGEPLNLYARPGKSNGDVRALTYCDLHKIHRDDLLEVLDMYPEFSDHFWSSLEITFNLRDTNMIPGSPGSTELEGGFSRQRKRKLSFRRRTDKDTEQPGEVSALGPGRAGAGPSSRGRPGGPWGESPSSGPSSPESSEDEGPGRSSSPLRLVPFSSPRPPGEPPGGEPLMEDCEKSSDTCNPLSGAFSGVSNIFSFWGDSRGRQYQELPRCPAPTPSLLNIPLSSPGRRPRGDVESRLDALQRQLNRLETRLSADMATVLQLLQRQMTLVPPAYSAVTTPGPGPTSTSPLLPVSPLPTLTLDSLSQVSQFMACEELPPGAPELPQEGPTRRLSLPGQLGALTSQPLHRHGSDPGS
row,SMILES,"hERG current change (%, negative = inhibition) at 10uM [%]"
1,O=C(OCCCN=C1NS(=O)(=O)c2ccccc21)c1ccccc1F,-12.4
2,COc1ccccc1C(=O)Nc1nc2cc3c(cc2s1)OCO3,16.2
3,Cc1nc2c(C(F)(F)F)cccc2c2c1CCS2,7.46
4,O=[N+]([O-])c1ccc(/C=N/N/C(=N/c2ccccn2)c2ccccn2)cc1,-14.5
5,CC1=NN(c2nc3ccccc3s2)C(O)(C(F)(F)F)C1 (stereo not shown),-0.175
6,NC(=O)c1cnn2c(C(F)(F)F)cc(-c3ccc(F)cc3)nc12,-37.9
7,Cc1cccc(/C=C(\C(=O)C(=O)O)c2ccc3ccccc3n2)c1,8.23
8,O=C(Nc1cc(Cl)ccc1Oc1ccccc1)c1ccc(F)cc1,-14.1
9,CN(Cc1cn(Cc2ccccc2)nc1-c1ccc2c(c1)OCO2)Cc1nccn1C,-32.7
10,O=C(NC(=O)c1ccccc1)OCC(F)(F)F,6.28
11,Cc1ccc(SCC(=O)NCCc2ccc(F)cc2)cc1,-0.26
12,COc1cc(-c2nnc(SCc3c(F)cccc3Cl)o2)cc(OC)c1OC,-7.62
13,CCn1cc(/C=C(\NC(=O)c2ccccc2F)C(=O)NCCCn2ccnc2)c2ccccc21,-69
14,Cc1ccc(C(O)P(=O)(OCCC(C)C)c2ccc(N(C)C)cc2)cc1 (stereo not shown),-8.02
15,COc1cc(S(=O)(=O)N(C)Cc2ccc3c(c2)OCCO3)ccc1NC(C)=O,0.222
16,CCCCCOC(=O)C1=C(C)N(C)C(=O)NC1c1cc(Br)c(O)c(OC)c1 (stereo not shown),-21.7
17,CCCC(C)NC(=O)CSc1nnc(-c2c[nH]c3ccccc23)o1 (stereo not shown),-24.4
18,c1ccc(-n2nnnc2OCCOc2nnnn2-c2ccccc2)cc1,-1.68
19,COc1ccc(-c2nc3ncnn3cc2C)cc1F,9.1
20,O=C(COC(=O)COc1ccc2ccccc2c1)NCC(F)(F)F,8.64
21,O=C(c1cc(COc2cccc(C(F)(F)F)c2)on1)N1CCC(c2ccccc2)CC1,6.79
22,CCc1cc2c(=O)c(-c3cnn(-c4ccccc4)c3)c(C(F)(F)F)oc2c(CN(C)C)c1O,3.68

row,SMILES,"hERG current change (%, negative = inhibition) at 10uM [%]"
1,COc1ccc(C2(CNC(=O)c3ccc(Br)o3)CCOCC2)cc1,-6.02
2,COc1ccc(N(Cc2nnc3n2CCCCC3)C(=O)Nc2ccccc2)cc1,22.5
3,CCC1Oc2ccc(C)cc2N(CC(=O)NCc2ccco2)C1=O (stereo not shown),15.1
4,Cc1ccc(OCCNC(=O)c2cc(=O)[nH]c3ccccc23)cc1,28.7
5,CC(=O)Nc1cccc(OCCCNC(=O)c2cccc3ccccc23)c1,-9.16
6,CC1CN(S(=O)(=O)c2ccc(C(=O)Nc3nccs3)cc2)CC(C)O1 (stereo not shown),13.3
7,CC(=O)c1c(C)[nH]c(C(=O)NCc2cccc(Cl)c2)c1C,-9.17
8,COc1ccc(C(=O)Nc2ccc(N3CCN(C(=O)c4ccccc4C)CC3)cc2)cc1,5.5
9,Cc1cc(C)nc(N2CCC(C(=O)O)CC2)n1,0.86
10,Cc1cc(C)nc(N2CCCC(C(=O)NC(C)C)C2)n1 (stereo not shown),2.34
11,COc1cccc(CN2CCN(Cc3cc(OC)c(OC)cc3[N+](=O)[O-])CC2)c1.O=C(O)C(=O)O,-46.3
12,CCOC(=O)Cc1csc(NS(=O)(=O)c2cc(Cl)ccc2Cl)n1,14.7
13,COc1ccc([C@@H]2[C@@H]3C(=O)N(C(C)(C)C)C(=O)[C@@H]3[C@]3(Cc4ccccc4)C(=O)N(c4ccc(OC)cc4)C(=O)N23)cc1,18.3
14,CC(C)(C)c1cc(C(=O)NNc2ccc(OC(F)(F)F)cc2)n(Cc2ccccc2)n1,19.2
15,Cc1c(C(=O)N2CCOCC2)c(S(=O)(=O)Nc2ccc(OC(F)(F)F)cc2)c(C)n1C,4.79
16,Cc1cccc(CCNC(=O)C2CCN(S(=O)(=O)N3CCOCC3)CC2)c1,-6.25
17,CC(=O)Nc1c(-c2ccccc2)nc2cc(C)ccn12,7.74
18,COc1ccc(CCN(C)C(=O)c2oc3ccccc3c2C)cc1OC,-0.562
19,O=C(Cn1c(C(F)(F)F)nc2ccccc21)N/N=C/c1ccco1,4.75
20,Cc1nnc(N2CCCC(C(=O)NCc3ccccc3F)C2)c2nn(-c3ccccc3)c(C)c12 (stereo not shown),-51.2
21,N#C/C(=C(\O)C(F)(F)F)c1nnc2n1CCCCC2,15.8
22,Cc1ccc(Cn2c(C)c3cnn(CC(=O)NC4CCCC4)c(=O)c3c2C)cc1,7.2

row,SMILES,"hERG current change (%, negative = inhibition) at 10uM [%]"
1,O=C(O)CCCCCNC(=O)c1ccccc1,8.89
2,CCOc1ccccc1C(=O)OCC(=O)Nc1ncc(C(F)(F)F)cc1Cl,-10.9
3,Cc1ccc2nc(-c3ccccn3)c(NC3CCCC3)n2c1,-16.7
4,N#CC(c1ccc(O)cc1)c1ncc(C(F)(F)F)cc1Cl (stereo not shown),-0.101
5,O=C(NC1CCN(C(=S)Nc2ccc(F)cc2)CC1)C1CCCCC1,3.49
6,COc1cc(OC)cc(C(=O)Nc2nc3ccccc3[nH]2)c1,8.2
7,CCc1nn(CC(=O)N2CC(C)CC(C)C2)c(=O)c2cccn12 (stereo not shown),16.7
8,O=C(COc1ccccc1)NN1C(=O)CSC1=S,15.7
9,COC(=O)/C=C(\C)NC(=O)c1ccc(F)cc1,4.94
10,Cc1ccccc1-n1c(SCc2cc(=O)n3ccccc3n2)nc2[nH]ncc2c1=O,-35.2
11,O=C(CN1C(=O)C2CCCCC2C1=O)Nc1nc2ccc(F)cc2s1 (stereo not shown),-31
12,CCNC(=O)N1CCCC(C(=O)c2ccc(-c3ccccc3)cc2)C1 (stereo not shown),8.85
13,CC1CCCN(C(=O)C23CCC(C)(C(=O)C2)C3(C)C)C1 (stereo not shown),-11.5
14,Cc1cc(C)n(CCN(C)c2nc3nonc3nc2N2CCCCC2)n1,9.24
15,Cc1nc([N+](=O)[O-])cn1CC(O)c1ccc(F)cc1 (stereo not shown),6.48
16,C=CCNC(=O)C(C#N)c1nc2ccccc2nc1N1CCCCCC1 (stereo not shown),-9.34
17,CCOC(=O)C1CCCN(c2c(NCCC(C)C)c(=O)c2=O)C1 (stereo not shown),-10.9
18,CCOC(=O)N1CCc2[nH]c3ccc(C)cc3c2C1,10.5
19,COC(=O)c1cn(C(=O)c2cccs2)c2ccccc12,-7.34
20,C=CCn1c(SCC(=O)N2CCN(c3ccccc3)CC2)nc2c([nH]c3ccccc32)c1=O,13.3
21,O=C(Oc1ccc(-c2cnc3ccccc3n2)cc1)c1ccc(Cl)c([N+](=O)[O-])c1,13.3
22,COc1ccc(N(C(=O)c2snc(C(N)=O)c2N)C(C(=O)NC2CCCC2)c2ccc3ncccc3c2)cc1 (stereo not shown),-2.14

row,SMILES,"hERG current change (%, negative = inhibition) at 10uM [%]"
1,O=C(c1nc[nH]c1C(=O)N1CCN(c2ccccc2)CC1)N1CCN(c2ccccc2)CC1,-4.08
2,COc1ccc(N2C(=O)CCC(C(=O)Nc3cccc(C)n3)C2c2ccc(OC)c(OC)c2)cc1 (stereo not shown),-3.84
3,COc1ccc(-c2c3c(=O)n(C)c(=O)n(C)c3cn2-c2cc(OC)ccc2OC)cc1,-35.2
4,NC(=O)c1ccsc1NC(=O)CCS(=O)(=O)c1ccc(F)cc1,-2.69
5,COC(=O)c1sc(NC(=S)NC(=O)c2ccccc2F)nc1C,7.71
6,Clc1cc(Br)ccc1NCc1cccnc1,-21.1
7,Cc1cc(C)cc(-n2cc[nH]c2=S)c1,14.5
8,CCN(c1ccccc1)S(=O)(=O)c1ccc(NC(=S)NC(=O)c2ccc(Br)o2)cc1,3.66
9,N#CNC(=Nc1cccc(F)c1)SCc1ccccc1,5.49
10,CC1CN(C(NC(=O)C(C)(C)C)C(Cl)(Cl)Cl)CC(C)O1 (stereo not shown),-18.5
11,S=c1cnc2ccccc2[nH]1,7.5
12,COc1ccc(CN(C)C(=O)c2sccc2-c2ccccc2)c(OC)c1,0.177
13,COc1ccc(S(=O)(=O)NCCC(=O)NC(C)c2ccccc2)cc1 (stereo not shown),-12.4
14,CCN1C(=O)c2cccc3c(S(=O)(=O)NCCc4c[nH]c5ccccc45)ccc1c23,-22.1
15,O=C(CCCN1C(=O)C2CC=CCC2C1=O)Nc1ccccc1F (stereo not shown),1.61
16,FC(F)Oc1ccc(NC(=S)NC23CC4CC(CC(C4)C2)C3)cc1,4.12
17,CC1CCCCC1NC(=O)CN(C)S(=O)(=O)c1ccc2c(c1)CCC(=O)N2 (stereo not shown),-11.4
18,CCOC(=O)c1cc(-c2ccccc2)sc1NC(=O)CSc1nncs1,-3.29
19,CCOc1ccc(C(NC(=O)CC)c2c(O)ccc3ccccc23)cc1 (stereo not shown),-7.96
20,CC(=O)OCCCN(C)CC/C=C1/c2ccccc2CSc2ccccc21.Cl,-32.8
21,Cc1ccc2c(c1)N(CC(=O)NCCCN1CCN(C)CC1)C(=O)CO2,9.46
22,C=CCNC(=O)/C(=C\c1ccc(Br)cc1)NC(=O)c1ccccc1OC,-51.8

# Source: publication PMC4336329 (PLoS ONE, 2015)
